Here are results for 56 sequences from the supplement of paper PMC11417369.

± gives the standard deviation of the averaged measurements. This is one part of the list.

The experiment has as its system PfAP2-G AP2 domain (GST-tagged). Description: gcPBM binding intensity (ln(normalized median fluorescence intensity)); higher = stronger DNA binding. The procedure, abridged: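 The binding buffer was 1× PBS containing 1% milk, 0.2 mg/ml BSA, 0.5% salmon testes DNA and 0.03% Triton X-100. In it, GST-tagged P. falciparum DNA-binding domains expressed in E. coli were applied for 1 h to an Agilent 4 × 180k array of primer-extended double-stranded 36-bp intergenic genomic probes plus negative controls. Binding intensity, read with Alexa488 anti-GST antibody and a 488 nm scan, is the highest Masliner-normalised natural-log median intensity across replicate spots of either probe orientation.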
With “GATGAATAAATCAAAGCACACATACACCCACATATA [CACACA_site7986]”, the “gcPBM binding intensity (ln)” value stood at 10.4 ± 0.38.

In the case of “TTCGTTTAAATCAAGTGTACATATTATATATAATAT [XGTACX_site7599]”, the “gcPBM binding intensity (ln)” value stood at 11.3 ± 0.87.

“ATTTTTTTTTTTTTTTTTTGGTTTTCTTTAGGAGTT [CACACA_negctrl_site1258]”: the “gcPBM binding intensity (ln)” value is 9.93 ± 0.29.

As for “GTGCATATACAAATATGTACTTAAACGTTTTTTTTT [XGTACX_site7362]”, the “gcPBM binding intensity (ln)” value is 11 ± 0.72.

Turning to “TTTTTCTTTTGATGTTGTACATATATATCATATAAT [XGTACX_site1189]”, the “gcPBM binding intensity (ln)” value is 11.3 ± 0.84.

As to “AAGACTTCTCCATATACACACACCAACAAATATAAA [CACACA_site2779]”, the “gcPBM binding intensity (ln)” value was determined as 10.2 ± 0.23.

As for “GTTTATTCATCATACGGTACACATAAATAATATATA [XGTACX_site6931]”, the “gcPBM binding intensity (ln)” value turned out to be 11.1 ± 0.79.

For the sequence “TTATTATTTCTTAGTAGTACTATATAATTTTTTTTT [XGTACX_site1847]”, the “gcPBM binding intensity (ln)” value was 11.2 ± 0.59.

Take “ATAGTATCTGGTAGCTGTACGAGTCGTAGAGAGTAG [XGTACX_site2546]”: the “gcPBM binding intensity (ln)” value was 11.3 ± 0.87.

With “TTTCCTCATTTTATCATACACACTTATTTATATGTG [CACACA_site900]”, the “gcPBM binding intensity (ln)” value amounted to 10.11 ± 0.099.

“GCCAAAATATAATTTACACACTTATTAAATAATTAT [CACACA_site236]”: the “gcPBM binding intensity (ln)” value turned out to be 9.85 ± 0.014.

As for “AGAATAATACAAAAATGTACATTAATAAAAAGATAG [XGTACX_site780]”, the “gcPBM binding intensity (ln)” value stood at 11.2 ± 0.72.

“ATATATCTGTATGGCACACACGGATAAATATATATA [CACACA_site4668]”: the “gcPBM binding intensity (ln)” value turned out to be 10.1 ± 0.2.

Take “TATATTTGTACATGATATTTTTTTTTTCTTTTAAAA [CACACA_negctrl_site754]”: the “gcPBM binding intensity (ln)” value worked out at 11.1 ± 0.62.

On to “TGTATTTAGAAACATACACACATATTAAGTTTACAT [CACACA_site5689]”, for which the “gcPBM binding intensity (ln)” value was found to be 9.955 ± 0.021.

Regarding “GGAAAATTATCAATAGCATGCAAAATGTGAATATTA [TGCATGCA_site901]”, the “gcPBM binding intensity (ln)” value came to 9.66 ± 0.22.

Consider “AAAACATTGTTGAACTGTTTTATTTATAAATATAAG [XGTACX_negctrl_site393]”, for which the “gcPBM binding intensity (ln)” value was found to be 9.94 ± 0.16.

For the sequence “ATATATATACTGTGTACACACATATGTATTTATATA [CACACA_site4600]”, the “gcPBM binding intensity (ln)” value amounted to 11.6 ± 0.78.

For the sequence ATTGAATATGGATATGTGCACATATGTATATAAGTA, the “gcPBM binding intensity (ln)” value worked out at 10.5 ± 0.2.

Take “AATTATATGAAATAAACACACATATGTAATATTACA [CACACA_site1928]”: the “gcPBM binding intensity (ln)” value came out at 9.86 ± 0.13.

As to “AGAAGGTAAATAATTTACCCATATATATAAATATAT [GTGCAC_negctrl_site631]”, the “gcPBM binding intensity (ln)” value turned out to be 9.895 ± 0.078.

With “TAATAACTACAAAAAAAAAAGAAAAATAGAAAAAGG [CACACA_negctrl_site1102]”, the “gcPBM binding intensity (ln)” value was determined as 9.86 ± 0.13.

In the case of “TCGTGTTAAACTTTTACACACAAACTTGCAATAATT [CACACA_site7745]”, the “gcPBM binding intensity (ln)” value was determined as 10.045 ± 0.007.

Regarding “TGCTTTATTATTTATTGTACATGTAAAATGAGAGAG [XGTACX_site2288]”, the “gcPBM binding intensity (ln)” value was found to be 11.2 ± 0.88.

Consider “TTTGTTTAAATTAAATGTACATAAAGAATAATATAT [XGTACX_site5093]”, for which the “gcPBM binding intensity (ln)” value came to 11.4 ± 0.76.

With “AAGATATCTAAGGAAATTAAACTACCAAAATATATA [TGCATGCA_negctrl_site338]”, the “gcPBM binding intensity (ln)” value came to 9.8 ± 0.3.

Regarding “TGCATAAAAGTAAAAACATGCATGCCGTGGTATCTT [TGCATGCA_site664]”, the “gcPBM binding intensity (ln)” value is 9.875 ± 0.049.

For the sequence “TGTATAATATATATATGTACTTATGTATAATATTAT [XGTACX_site4328]”, the “gcPBM binding intensity (ln)” value worked out at 11.2 ± 0.76.

Take “GACATATAAATATACACACATACGTAAGTATATTAA [CACACA_site1790]”: the “gcPBM binding intensity (ln)” value was 9.98 ± 0.12.

On to “TTTTTATGGATATTTATATTATATTATGATTAAAAA [TGCATGCA_negctrl_site204]”, for which the “gcPBM binding intensity (ln)” value worked out at 9.725 ± 0.049.

With “AATAATACAAAAGTTCAACAAAAAAAAAAAAAAAAT [CACACA_negctrl_site952]”, the “gcPBM binding intensity (ln)” value was determined as 10 ± 0.31.

“CTTTATAATATTTGTTGTACACAAATATAACATATT [XGTACX_site709]”: the “gcPBM binding intensity (ln)” value was 11.6 ± 1.1.

With “AAATATATATATATATATATATATGTGTGTGTATAT [GTGCAC_negctrl_site1]”, the “gcPBM binding intensity (ln)” value turned out to be 9.735 ± 0.092.

Regarding “GTACATAATTATTATGCACACATATTTTTATGTATT [CACACA_site8132]”, the “gcPBM binding intensity (ln)” value was 10.8 ± 0.36.

As to “AATATATTTATAAGCACACACTAATAAACACAGACA [CACACA_site4377]”, the “gcPBM binding intensity (ln)” value was found to be 10.3 ± 0.26.

For the sequence “TAATAATAATTATATACACACATGTATATTATATTT [CACACA_site1501]”, the “gcPBM binding intensity (ln)” value worked out at 9.81 ± 0.057.

“ACTCCTATATAAATGAACCATATTCATAATATATAT [CACACA_negctrl_site1636]”: the “gcPBM binding intensity (ln)” value was found to be 10 ± 0.18.

As to “ATTTAAATATATTATTGTACATATACCTAATAAGAA [XGTACX_site6655]”, the “gcPBM binding intensity (ln)” value is 11.1 ± 0.73.

Consider “AAGAGAAAAACATACACACACAACAAAATATGTATA [CACACA_site2719]”, for which the “gcPBM binding intensity (ln)” value stood at 9.95 ± 0.085.

On to “AAATGAAAGAATTAAAGTACATTTATATAATTTTAA [XGTACX_site3540]”, for which the “gcPBM binding intensity (ln)” value is 11.1 ± 0.71.

“ATTTTTTTTATTTTTTATATAATTTTTTTATATTAT [CACACA_negctrl_site1521]”: the “gcPBM binding intensity (ln)” value was 9.47 ± 0.26.

On to “TGTATTTATAAACATGCACACGTGGTTGTATTTATA [CACACA_site5762]”, for which the “gcPBM binding intensity (ln)” value was determined as 10.175 ± 0.007.

For the sequence “ATTTGTTTACCTAAAAGTACAAATTTTTTATGTATA [XGTACX_site7689]”, the “gcPBM binding intensity (ln)” value is 11 ± 0.66.

As for “ATATCTTATGTTATCACACACACACGCACAAAACAG [CACACA_site6800]”, the “gcPBM binding intensity (ln)” value was 10.8 ± 0.59.

“TATCCCTTAGAATACACACCCATATGAGTGTGAACT [CACACA_site7398]”: the “gcPBM binding intensity (ln)” value was found to be 10.05 ± 0.057.

Regarding “TGTTTTGTTTTTTGGGGTACATGTTTTGTATTATAT [XGTACX_site7997]”, the “gcPBM binding intensity (ln)” value stood at 11.6 ± 0.78.

Take “AAAAAAAAAAAAAACATACACACAAATATATACATA [CACACA_site4010]”: the “gcPBM binding intensity (ln)” value turned out to be 9.97 ± 0.14.

As for “ATGTATTAAAAAAATTGTACTATAAAATGTAACCGC [XGTACX_site8083]”, the “gcPBM binding intensity (ln)” value came to 11.1 ± 0.57.

For “AAGGCAAGCACTTAAACATGCATATAATAATATCAT [TGCATGCA_site698]”, the “gcPBM binding intensity (ln)” value was 9.77 ± 0.16.

For “ATAATATATATATATGCATGTACATATTTATCTTTA [TGCATGCA_site32]”, the “gcPBM binding intensity (ln)” value amounted to 11.1 ± 0.75.

Consider “ATATATATATATATATGTACATATATATATGTATAT [XGTACX_site3959]”, for which the “gcPBM binding intensity (ln)” value came out at 11.4 ± 1.

For “ATATTATTTTAAAGTACACACATATATTAATATATA [CACACA_site2315]”, the “gcPBM binding intensity (ln)” value is 11.6 ± 1.

In the case of “TATACATACAGACCCACACACAAAAAAAAAAAAAAA [CACACA_site6536]”, the “gcPBM binding intensity (ln)” value stood at 10.3 ± 0.73.

“TTATACATAAATTTTGTACACACAAAAAAAAAAAAG [CACACA_site8374]”: the “gcPBM binding intensity (ln)” value is 11.2 ± 0.87.

For the sequence “TTTCAAAAGTAATACTGTACTTATTTTTATGATTTA [XGTACX_site4184]”, the “gcPBM binding intensity (ln)” value is 11.6 ± 1.2.

With “ACATATTTTATTTTTTGTACACATATATTATTTTTT [XGTACX_site6528]”, the “gcPBM binding intensity (ln)” value was found to be 11.3 ± 0.66.
